For the experiment, the target named is T1, biotinylated truncated STAT6 (123-632)-avi (Homo sapiens, UniProt P42226).
T1 sequence (P42226 123-632 limits assumed): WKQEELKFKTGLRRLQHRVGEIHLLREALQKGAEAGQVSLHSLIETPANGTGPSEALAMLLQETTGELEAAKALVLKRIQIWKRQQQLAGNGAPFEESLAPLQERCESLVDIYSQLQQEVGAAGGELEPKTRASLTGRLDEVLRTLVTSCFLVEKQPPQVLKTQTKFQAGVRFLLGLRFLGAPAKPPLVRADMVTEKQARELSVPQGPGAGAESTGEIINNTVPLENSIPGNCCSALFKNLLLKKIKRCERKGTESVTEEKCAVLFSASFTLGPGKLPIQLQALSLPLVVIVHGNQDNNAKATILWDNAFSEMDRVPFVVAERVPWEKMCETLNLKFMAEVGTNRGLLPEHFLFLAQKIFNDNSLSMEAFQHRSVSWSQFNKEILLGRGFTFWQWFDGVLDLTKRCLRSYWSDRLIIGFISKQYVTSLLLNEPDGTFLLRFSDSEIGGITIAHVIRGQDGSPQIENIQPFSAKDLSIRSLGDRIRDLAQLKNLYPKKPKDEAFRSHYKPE
The experiment can be described thus: Homogenous Time-Resolved Fluorescence (HTRF) binding assay. Conditions: 0.15 nM biotinylated truncated STAT6 (123-632)-avi, 20 nM fluorescein-labeled probe, 30 minutes at room temperature.

Molecules are shown by their SMILES. Some results are limits rather than exact numbers.

As usually defined, the IC50 is the point on the concentration scale where inhibition reaches its midpoint. The low end stands for higher potency, the high end for lower potency.

`COc1cc(F)c(F)cc1-c1cc(C2=CCCN(C(=O)CCn3ccnn3)C2)c(F)c2[nH]c(C(=O)N3CCN(c4ncccc4OC)CC3)cc12` [Example I-559] registered an IC50 of less than 100 nM.
As for `COc1cccnc1N1CCN(C(=O)c2cc3c(-c4cccc(C)c4OC)cc(C4=CCCN(C(=O)CCn5ccnn5)C4)c(F)c3[nH]2)CC1` [Example I-560], the IC50 is less than 100 nM.
`CCc1ccncc1-c1cc(C2=CCCN(C(=O)CCn3ccnn3)C2)c(F)c2[nH]c(C(=O)N3CCN(c4ncccc4OC)CC3)cc12` [Example I-561] came in with an IC50 of less than 100 nM.
The compound `CCc1ccccc1-c1cc(C2=CCCN(C(=O)CCn3ccnn3)C2)c(F)c2[nH]c(C(=O)N3CCN(c4ncccc4OC)CC3)cc12` [Example I-562] returned an IC50 of less than 100 nM.
`COc1ccncc1-c1cc(C2=CCCN(C(=O)CCn3ccnn3)C2)c(F)c2[nH]c(C(=O)N3CCN(c4cccc(F)c4OC)CC3)cc12` [Example I-563] came in with an IC50 of less than 100 nM.
`CCOc1cccnc1N1CCN(C(=O)c2cc3c(-c4cnccc4OC)cc(C4=CCCN(C(=O)CCn5ccnn5)C4)c(F)c3[nH]2)CC1` [Example I-564]: the IC50 is less than 100 nM.
With `COc1ccc(F)cc1-c1cc(C2=CCCN(C(=O)CCn3ccnn3)C2)c(F)c2[nH]c(C(=O)N3CCN(c4ccccc4OC)CC3)cc12` [Example I-566], the IC50 is less than 100 nM.
`COc1ccncc1-c1cc(C2=CCCN(C(=O)CCn3ccnn3)C2)c(F)c2[nH]c(C(=O)N3CCN(c4ccccn4)C(C)C3)cc12` (stereo not drawn) [Example I-568]: the IC50 is less than 100 nM.
`COc1cccnc1N1CCN(C(=O)c2cc3c(C4=C(C)CCCC4)cc(C4=CCCN(C(=O)CCn5ccnn5)C4)c(F)c3[nH]2)CC1` [Example I-569] gave an IC50 of less than 100 nM.
Turning to `COc1cc(C)ncc1-c1cc(C2=CCCN(C(=O)CCn3ccnn3)C2)c(F)c2[nH]c(C(=O)N3CCN(c4ncccc4OC)CC3)cc12` [Example I-570], the IC50 was less than 100 nM.
For `COc1cccnc1N1CCN(C(=O)c2cc3c(-c4nc(C)[nH]c4C)cc(C4=CCCN(C(=O)CCn5ccnn5)C4)c(F)c3[nH]2)CC1` [Example I-572] the value was less than 100 nM.
For `COc1cccnc1N1CCN(C(=O)c2cc3c(-c4ccccc4C#N)cc(C4=CCCN(C(=O)CCn5ccnn5)C4)c(F)c3[nH]2)CC1` [Example I-573] the value was less than 100 nM; for `COc1cccnc1N1CCN(C(=O)c2cc3c(-c4cn(C)nc4C)cc(C4=CCCN(C(=O)CCn5ccnn5)C4)c(F)c3[nH]2)CC1` [Example I-574], less than 100 nM.
For `COc1cccnc1N1CCN(C(=O)c2cc3c(-c4ccc(C#N)cn4)cc(C4=CCCN(C(=O)CCn5ccnn5)C4)c(F)c3[nH]2)CC1` [Example I-575] the value was less than 100 nM; for `COc1cccnc1N1CCN(C(=O)c2cc3c(-c4ccc5ncccc5c4OC)cc(C4=CCCN(C(=O)CCn5ccnn5)C4)c(F)c3[nH]2)CC1` [Example I-577], less than 100 nM.
`COc1cccnc1N1CCN(C(=O)c2cc3c(-n4ccc5ccccc54)cc(C4=CCCN(C(=O)CCn5ccnn5)C4)c(F)c3[nH]2)CC1` [Example I-578]: the IC50 was less than 100 nM.
In the case of `CNc1ccc(-c2cc(C3=CCCN(C(=O)CCn4ccnn4)C3)c(F)c3[nH]c(C(=O)N4CCN(c5ncccc5OC)CC4)cc23)c(OC)c1` [Example I-580], the IC50 is less than 100 nM.
For the compound `COc1cccnc1N1CCN(C(=O)c2cc3c(-c4cc(C#N)ccn4)cc(C4=CCCN(C(=O)CCn5ccnn5)C4)c(F)c3[nH]2)CC1` [Example I-581], the IC50 is less than 100 nM.
In turn, `CCn1nccc1-c1cc(C2=CCCN(C(=O)CCn3ccnn3)C2)c(F)c2[nH]c(C(=O)N3CCN(c4ncccc4OC)CC3)cc12` [Example I-582] came in with an IC50 of less than 100 nM.
For `COc1cccnc1N1CCN(C(=O)c2cc3c(-c4ccc(OC)c5c4OCCO5)cc(C4=CCCN(C(=O)CCn5ccnn5)C4)c(F)c3[nH]2)CC1` [Example I-583] the value was greater than 100000 nM; for `COc1cccnc1N1CCN(C(=O)c2cc3c(C4CCN(C)C4)cc(C4=CCCN(C(=O)CCn5ccnn5)C4)c(F)c3[nH]2)CC1` (stereo not drawn) [Example I-585], less than 100 nM.
Take `COc1cccnc1N1CCN(C(=O)c2cc3c(-n4nc(C)cc4C)cc(C4=CCCN(C(=O)CCn5ccnn5)C4)c(F)c3[nH]2)CC1` [Example I-586]: the IC50 is less than 100 nM.
Compound `COc1ccncc1-c1cc(C2=CCCN(C(=O)CCn3ccnn3)C2)c(F)c2[nH]c(C(=O)N3CCN(C4CC4)CC3)cc12` [Example I-587] showed a 50% inhibitory concentration (IC50) of less than 100 nM.
`COc1cc(F)ccc1-c1cc(C2=CCCN(C(=O)CCn3ccnn3)C2)c(F)c2[nH]c(C(=O)N3CCN(C4CC4)CC3)cc12` [Example I-588]: the IC50 was less than 100 nM.
The compound `COc1cccc(N2CCN(C(=O)c3cc4c(-c5ccc(F)cc5OC)cc(C5=CCCN(C(=O)CCn6ccnn6)C5)c(F)c4[nH]3)CC2)n1` [Example I-589] showed an IC50 of less than 100 nM.
The compound `COc1cccc(N2CCN(C(=O)c3cc4c(-c5cc(F)c(F)cc5OC)cc(C5=CCCN(C(=O)CCn6ccnn6)C5)c(F)c4[nH]3)CC2)n1` [Example I-590] showed an IC50 of less than 100 nM.
The result for `COc1cccc(N2CCN(C(=O)c3cc4c(-c5cc(F)cc(F)c5OC)cc(C5=CCCN(C(=O)CCn6ccnn6)C5)c(F)c4[nH]3)CC2)n1` [Example I-591] reads less than 100 nM; that for `COc1cccnc1N1CCN(C(=O)c2cc3c(N4CCCOCC4)cc(C4=CCCN(C(=O)CCn5ccnn5)C4)c(F)c3[nH]2)CC1` [Example I-592], less than 100 nM; that for `COc1cnccc1-c1cc(C2=CCCN(C(=O)CCn3ccnn3)C2)c(F)c2[nH]c(C(=O)N3CCN(c4ncccc4OC4CC4)CC3)cc12` [Example I-593], less than 100 nM.
`COc1cc(F)ccc1-c1cc(C2=CCCN(C(=O)CCn3ccnn3)C2)c(F)c2[nH]c(C(=O)N3CCN(c4ncccc4OC4CC4)CC3)cc12` [Example I-594] yielded an IC50 of less than 100 nM.
As for `COc1ncccc1-c1cc(C2=CCCN(C(=O)CCn3ccnn3)C2)c(F)c2[nH]c(C(=O)N3CCN(c4ncccc4OC4CC4)CC3)cc12` [Example I-595], the IC50 was less than 100 nM.
The compound `COc1cc(F)c(F)cc1-c1cc(C2=CCCN(C(=O)CCn3ccnn3)C2)c(F)c2[nH]c(C(=O)N3CCN(c4ncccc4OC4CC4)CC3)cc12` [Example I-596] yielded an IC50 of less than 100 nM.
On to `COc1c(F)cc(F)cc1-c1cc(C2=CCCN(C(=O)CCn3ccnn3)C2)c(F)c2[nH]c(C(=O)N3CCN(c4ncccc4OC4CC4)CC3)cc12` [Example I-597], for which the IC50 was less than 100 nM.
`COc1cc(F)ccc1-c1cc(C2=CCCN(C(=O)CCn3ccnn3)C2)c(F)c2[nH]c(C(=O)N3CCN(c4ccccc4OC)CC3)cc12` [Example I-598] gave an IC50 of less than 100 nM.
Compound `COc1ccccc1N1CCN(C(=O)c2cc3c(-c4cccnc4OC)cc(C4=CCCN(C(=O)CCn5ccnn5)C4)c(F)c3[nH]2)CC1` [Example I-599] showed a half-maximal inhibitory concentration (IC50) of less than 100 nM.
The result for `COc1cc(F)c(F)cc1-c1cc(C2=CCCN(C(=O)CCn3ccnn3)C2)c(F)c2[nH]c(C(=O)N3CCN(c4ccccc4OC)CC3)cc12` [Example I-600] reads less than 100 nM.
Regarding `COc1ccccc1N1CCN(C(=O)c2cc3c(-c4cc(F)cc(F)c4OC)cc(C4=CCCN(C(=O)CCn5ccnn5)C4)c(F)c3[nH]2)CC1` [Example I-601], the IC50 is less than 100 nM.
In the case of `COc1ncccc1-c1cc(C2=CCCN(C(=O)CCn3ccnn3)C2)c(F)c2[nH]c(C(=O)N3CCN(C4CC4)CC3)cc12` [Example I-602], the IC50 is less than 100 nM.
In the case of `COc1c(F)cc(F)cc1-c1cc(C2=CCCN(C(=O)CCn3ccnn3)C2)c(F)c2[nH]c(C(=O)N3CCN(C4CC4)CC3)cc12` [Example I-603], the 50% inhibitory concentration (IC50) is less than 100 nM.
`COc1cc(F)c(F)cc1-c1cc(C2=CCCN(C(=O)CCn3ccnn3)C2)c(F)c2[nH]c(C(=O)N3CCN(C4CC4)CC3)cc12` [Example I-604] came in with an IC50 of less than 100 nM.
For `COc1cccc(N2CCN(C(=O)c3cc4c(-c5cccnc5OC)cc(C5=CCCN(C(=O)CCn6ccnn6)C5)c(F)c4[nH]3)CC2)n1` [Example I-606] the value was less than 100 nM.
In turn, `COc1cccnc1N1CCN(C(=O)c2cc3c(-c4cnccc4C(C)C)cc(C4=CCCN(C(=O)CCn5ccnn5)C4)c(F)c3[nH]2)CC1` [Example I-607] gave an IC50 greater than 100000 nM.
In the case of `COc1cc(N(C)C)ccc1-c1cc(C2=CCCN(C(=O)CCn3ccnn3)C2)c(F)c2[nH]c(C(=O)N3CCN(c4ncccc4OC4CC4)CC3)cc12` [Example I-609], the IC50 is less than 100 nM.
For `COc1cc(N(C)C)ccc1-c1cc(C2=CCCN(C(=O)CCn3ccnn3)C2)c(F)c2[nH]c(C(=O)N3CCN(c4ccccc4OC)CC3)cc12` [Example I-610] the value was less than 100 nM.
In turn, `COc1cccc(N2CCN(C(=O)c3cc4c(-c5ccncc5OC)cc(C5=CCCN(C(=O)CCn6ccnn6)C5)c(F)c4[nH]3)CC2)n1` [Example I-612] gave an IC50 of less than 100 nM.
In turn, `COc1cc(F)ccc1-c1cc(C2=CCCN(C(=O)CCn3ccnn3)C2)c(F)c2[nH]c(C(=O)N3CCN(c4ncc(F)cc4OC)CC3)cc12` [Example I-613] came in with a half-inhibitory concentration (IC50) of less than 100 nM.
As for `COc1cc(F)cnc1-c1cc(C2=CCCN(C(=O)CCn3ccnn3)C2)c(F)c2[nH]c(C(=O)N3CCN(c4ncc(F)cc4OC)CC3)cc12` [Example I-614], the IC50 was less than 100 nM.
`COc1cc(F)cnc1N1CCN(C(=O)c2cc3c(-c4cccc(O)c4)cc(C4=CCCN(C(=O)CCn5ccnn5)C4)c(F)c3[nH]2)CC1` [Example I-615]: the IC50 is less than 100 nM.

Source of the values: patent US20250214977A1, “STAT6 INHIBITORS AND USES THEREOF” (Kymera Therapeutics, Inc., priority 2024, published 2025).
